# Results as given in the supplement of paper PMC11417369.
# ± gives the standard deviation of the averaged measurements. This is one part of the list.
# Test system: PfAP2-LT AP2 domain (GST-tagged)
# Test: gcPBM binding intensity (ln(normalized median fluorescence intensity)); higher = stronger DNA binding
# In short: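 GST-tagged P. falciparum DNA-binding domains, expressed in E. coli (about 25 μg on average), were applied for 1 h to an Agilent 4 × 180k array of primer-extended double-stranded 36-bp intergenic genomic probes plus negative controls. The binding buffer was 1× PBS with 1% milk, 0.2 mg/ml BSA, 0.5% salmon testes DNA and 0.03% Triton X-100. Bound protein was detected with Alexa488 anti-GST antibody and scanned at 488 nm. Binding intensity is the highest Masliner-normalised natural-log median intensity across replicate spots of either probe orientation.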
row,Sequence,gcPBM binding intensity (ln)
1,TGTTCTTTGTTCAGCGCATGTAAAATAAAATAAAAT [TGCATGCA_site629],8.6 ± 0.26
2,GATTGATTATATGTGTGTACTTATATGTTAAAAAAA [XGTACX_site4784],8.83 ± 0.42
3,TATGAATATCTATACACACACATATATATACCCACT [CACACA_site4963],9.62 ± 0.17
4,TAAAGAATAATACATTCACACAATATTATAAAAATA [CACACA_site5986],8.63 ± 0.47
5,GAAATGTCATATAATAGTACACACATGAAAATATAA [XGTACX_site6838],9.14 ± 0.47
6,TATGATTAATTACCACAATTGACAAAAAAAAAAAAA [CACACA_negctrl_site336],8.52 ± 0.36
7,TTGTATGAATTTATTTTTATTGATAATTAATATGTA [TGCATGCA_negctrl_site143],8.43 ± 0.4
8,TATAAGTATTAATACACACACAAAATAATAAAAAAA [CACACA_site3481],9.33 ± 0.34
9,AAAAATAAAGGATATACACACTAATTCTATAAATAT [CACACA_site7344],8.93 ± 0.33
10,GTCTCGATAATGAAAAGTACAAAATAAAAATAATAA [XGTACX_site6471],8.77 ± 0.52
11,TTGTTCTATATATATGCATGCACGTATGTTAAATTA [TGCATGCA_site659],9.22 ± 0.24
12,TCTCATATATTGAATTGTACATATGTTAAAATATAG [XGTACX_site6764],8.5 ± 0.27
13,TATTAATTTTTATACGCATGTGTATAGTAATATATA [TGCATGCA_site1010],8.66 ± 0.37
14,ATACAAAAGGGGAATACACACACATATATATATATA [CACACA_site8694],10.12 ± 0.021
15,AATAAACATAGATGTACACACATATACAGATATATA [CACACA_site5570],9.26 ± 0.45
16,TTAATATATTTTAAAAGTACATAATATTATTTTTTA [XGTACX_site3642],8.09 ± 0.45
17,AAGAAAAGAACAAGAGCATGCACTTAATAAGAATAA [TGCATGCA_site818],9.06 ± 0.42
18,TATAGTTTTGAAAACAAACACACAAAAAAAAAAAAA [CACACA_site1691],8.63 ± 0.53
19,AAGAGGTTAATGAAATGTACACATATATATATATAT [XGTACX_site1861],9.79 ± 0.49
20,TTTTATAAATATTATACATGCATAATGATAAAAAAA [TGCATGCA_site927],8.46 ± 0.44
21,ATAATTTCACAAATAGTGCAAAAATTAGTAAGAATA [GTGCAC_site9648],8.73 ± 0.53
22,TTTTTTTTCTATGTGGTGCACATTATTTTTTTTTTT,8.81 ± 0.5

row,Sequence,gcPBM binding intensity (ln)
1,TATGTAACCTGTTTTACACACCCCCACCCCCCTCTT [CACACA_site319],10.09 ± 0.05
2,TTTAAATACAGACATACACACATACACAGACATATA [CACACA_site4460],9.43 ± 0.25
3,AAAAAAAACAGACACACACACATACAAAATATATAT [CACACA_site1449],9.79 ± 0.3
4,CTCTATTGTTAAAAGGTGCTTTTATGATTTTATATA [GTGCAC_site9409],8.57 ± 0.54
5,AAAATTTATGGAAGGTGTACTGTTAATTATGTATAT [XGTACX_site6446],8.74 ± 0.36
6,ATATTAAAGATATATACACACATATTTATAAATATA [CACACA_site7127],8.8 ± 0.42
7,GAAGACAATTATATGTGTACATATATATACATATAT [XGTACX_site4630],8.95 ± 0.37
8,GGAATTCATATTAATTGTACATTTAAAGATAGATGA [XGTACX_site3279],8.6 ± 0.53
9,AGTAGATATTATTATAGTACTTTTTATTTTATATTT [XGTACX_site1551],8.7 ± 0.42
10,ATATTTTACATATTTGCACACATATATTTATATACA [CACACA_site855],9.38 ± 0.33
11,ATATATATATATATATGTACTTATTTATTTATTTAT [XGTACX_site4645],9.63 ± 0.16
12,TAATATGTGGACTTTACACACTTGTTTTAAAATTCT [CACACA_site4605],8.77 ± 0.49
13,TGTATACATTATTAAGTGCAAGTAGGGAAAAAAAAA,8.72 ± 0.47
14,GATGATACGATTATCACACATTTATACTTTCTACAT [CACACA_site5669],9.01 ± 0.49
15,ATATAAAAATAATAGAGTACAAAAAAAAAATGTATA [XGTACX_site7054],8.79 ± 0.54
16,TTTATTTATCTTTACGCACACACTTGCATGTACAAA [CACACA_site1118],9.52 ± 0.44
17,TACCTACCTTTACGGAGTACACAATAATAGTTATAA [XGTACX_site6593],8.72 ± 0.41
18,ATATGATTAATTAAGTGTACGTATTTATAATTATAA [XGTACX_site5783],8.6 ± 0.44
19,ATTACAATTTTAATAGTGCATTTTTATATATTTCTA [GTGCAC_site9918],8.6 ± 0.5
20,ATATAACTTTTAAAAGCATGCAAATATTTACTCAAT [TGCATGCA_site396],8.78 ± 0.45
21,TTTTTACTATAAGGGGAAAAAAAAAAAAATAATATA [XGTACX_negctrl_site279],8.2 ± 0.6
22,TAAACATATACACGTACATGCAACGGATTTTTTTTT [TGCATGCA_site70],8.81 ± 0.4
